These results are taken from paper PMC10868759.

These are yes or no findings as the source states them, for the method shown. In cells and extracts the contact can be indirect. Some results given as binding are weak or reduced against the parent protein; the word gives no strength. Tags and fused reporters may be left off the sequences shown.

Assay [1] concerns the target T1, CESA3, N-terminal YN or YC fusion (BiFC) (Arabidopsis thaliana) (UniProt Q941L0).
T1 sequence: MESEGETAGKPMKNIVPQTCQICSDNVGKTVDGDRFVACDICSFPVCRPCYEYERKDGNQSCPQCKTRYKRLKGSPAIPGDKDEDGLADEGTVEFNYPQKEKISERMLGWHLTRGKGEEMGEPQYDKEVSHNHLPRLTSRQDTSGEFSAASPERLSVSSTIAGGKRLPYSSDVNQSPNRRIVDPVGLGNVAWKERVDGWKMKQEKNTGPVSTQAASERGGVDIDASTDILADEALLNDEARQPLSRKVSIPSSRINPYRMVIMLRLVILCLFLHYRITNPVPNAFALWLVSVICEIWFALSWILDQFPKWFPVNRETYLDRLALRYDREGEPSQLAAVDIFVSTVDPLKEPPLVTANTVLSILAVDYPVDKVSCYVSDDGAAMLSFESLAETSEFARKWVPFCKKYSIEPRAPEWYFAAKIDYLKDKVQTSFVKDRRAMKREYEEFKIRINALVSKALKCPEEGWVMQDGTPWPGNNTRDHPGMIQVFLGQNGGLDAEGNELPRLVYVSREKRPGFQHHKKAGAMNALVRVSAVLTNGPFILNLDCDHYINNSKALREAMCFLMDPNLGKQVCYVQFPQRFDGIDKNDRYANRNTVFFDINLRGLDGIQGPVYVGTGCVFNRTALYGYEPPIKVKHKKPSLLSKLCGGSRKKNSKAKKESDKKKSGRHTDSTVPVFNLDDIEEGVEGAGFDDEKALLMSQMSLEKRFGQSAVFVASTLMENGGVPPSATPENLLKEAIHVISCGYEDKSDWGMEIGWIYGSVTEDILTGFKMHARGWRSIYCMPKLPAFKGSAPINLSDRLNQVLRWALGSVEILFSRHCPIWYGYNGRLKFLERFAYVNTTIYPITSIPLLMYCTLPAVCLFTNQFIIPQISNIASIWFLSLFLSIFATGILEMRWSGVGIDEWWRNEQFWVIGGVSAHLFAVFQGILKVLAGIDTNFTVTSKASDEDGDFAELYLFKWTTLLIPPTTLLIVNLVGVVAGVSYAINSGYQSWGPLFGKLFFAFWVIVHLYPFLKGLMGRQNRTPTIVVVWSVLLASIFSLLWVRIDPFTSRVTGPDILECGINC
Put plainly: split reporter; BiFC: N-terminal YN and YC fusions co-expressed in epidermal cells of N. benthamiana leaves, observed 3 days after infiltration by spinning-disk microscopy; CFP-N7 as transformation control.

For assay [2], the target named is T2, CESA6, N-terminal YN or YC fusion (BiFC) (Arabidopsis thaliana) (UniProt Q94JQ6).
T2 sequence: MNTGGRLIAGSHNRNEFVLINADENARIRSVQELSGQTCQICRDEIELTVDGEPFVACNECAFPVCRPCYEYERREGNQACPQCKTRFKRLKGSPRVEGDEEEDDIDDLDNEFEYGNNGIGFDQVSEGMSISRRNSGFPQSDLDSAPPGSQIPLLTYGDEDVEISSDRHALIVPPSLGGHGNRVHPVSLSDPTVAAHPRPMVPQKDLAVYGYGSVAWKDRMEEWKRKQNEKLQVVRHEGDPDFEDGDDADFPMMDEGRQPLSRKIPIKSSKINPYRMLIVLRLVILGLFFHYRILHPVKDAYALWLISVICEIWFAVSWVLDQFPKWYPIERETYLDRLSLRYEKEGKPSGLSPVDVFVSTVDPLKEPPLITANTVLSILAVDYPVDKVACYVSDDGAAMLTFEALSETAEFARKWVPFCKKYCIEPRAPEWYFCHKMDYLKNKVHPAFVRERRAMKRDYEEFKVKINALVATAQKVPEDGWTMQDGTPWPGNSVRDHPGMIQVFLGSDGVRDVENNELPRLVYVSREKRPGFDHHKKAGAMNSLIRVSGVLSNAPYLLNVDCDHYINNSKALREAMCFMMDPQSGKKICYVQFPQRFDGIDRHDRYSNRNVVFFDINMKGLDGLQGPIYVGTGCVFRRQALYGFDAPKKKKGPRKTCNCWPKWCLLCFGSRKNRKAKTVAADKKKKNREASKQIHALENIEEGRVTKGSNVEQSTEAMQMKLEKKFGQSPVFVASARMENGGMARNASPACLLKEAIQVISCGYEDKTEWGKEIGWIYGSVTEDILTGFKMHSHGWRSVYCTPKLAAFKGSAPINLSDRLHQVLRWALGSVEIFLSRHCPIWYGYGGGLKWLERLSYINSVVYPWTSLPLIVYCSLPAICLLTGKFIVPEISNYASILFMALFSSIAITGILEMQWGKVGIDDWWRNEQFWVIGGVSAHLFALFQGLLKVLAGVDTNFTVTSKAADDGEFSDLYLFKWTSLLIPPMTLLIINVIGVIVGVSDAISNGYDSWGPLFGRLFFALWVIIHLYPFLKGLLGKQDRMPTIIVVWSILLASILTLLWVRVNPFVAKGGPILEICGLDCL
The description is as above.

B1: CESA3, N-terminal YN or YC fusion (BiFC) (protein, UniProt Q941L0 1-1065)
chain: MESEGETAGKPMKNIVPQTCQICSDNVGKTVDGDRFVACDICSFPVCRPCYEYERKDGNQSCPQCKTRYKRLKGSPAIPGDKDEDGLADEGTVEFNYPQKEKISERMLGWHLTRGKGEEMGEPQYDKEVSHNHLPRLTSRQDTSGEFSAASPERLSVSSTIAGGKRLPYSSDVNQSPNRRIVDPVGLGNVAWKERVDGWKMKQEKNTGPVSTQAASERGGVDIDASTDILADEALLNDEARQPLSRKVSIPSSRINPYRMVIMLRLVILCLFLHYRITNPVPNAFALWLVSVICEIWFALSWILDQFPKWFPVNRETYLDRLALRYDREGEPSQLAAVDIFVSTVDPLKEPPLVTANTVLSILAVDYPVDKVSCYVSDDGAAMLSFESLAETSEFARKWVPFCKKYSIEPRAPEWYFAAKIDYLKDKVQTSFVKDRRAMKREYEEFKIRINALVSKALKCPEEGWVMQDGTPWPGNNTRDHPGMIQVFLGQNGGLDAEGNELPRLVYVSREKRPGFQHHKKAGAMNALVRVSAVLTNGPFILNLDCDHYINNSKALREAMCFLMDPNLGKQVCYVQFPQRFDGIDKNDRYANRNTVFFDINLRGLDGIQGPVYVGTGCVFNRTALYGYEPPIKVKHKKPSLLSKLCGGSRKKNSKAKKESDKKKSGRHTDSTVPVFNLDDIEEGVEGAGFDDEKALLMSQMSLEKRFGQSAVFVASTLMENGGVPPSATPENLLKEAIHVISCGYEDKSDWGMEIGWIYGSVTEDILTGFKMHARGWRSIYCMPKLPAFKGSAPINLSDRLNQVLRWALGSVEILFSRHCPIWYGYNGRLKFLERFAYVNTTIYPITSIPLLMYCTLPAVCLFTNQFIIPQISNIASIWFLSLFLSIFATGILEMRWSGVGIDEWWRNEQFWVIGGVSAHLFAVFQGILKVLAGIDTNFTVTSKASDEDGDFAELYLFKWTTLLIPPTTLLIVNLVGVVAGVSYAINSGYQSWGPLFGKLFFAFWVIVHLYPFLKGLMGRQNRTPTIVVVWSVLLASIFSLLWVRIDPFTSRVTGPDILECGINC
Consider B1, for which the binding entry in assay [1] is reported as “binds”.

B2: CESA6, N-terminal YN or YC fusion (BiFC) (protein, UniProt Q94JQ6 1-1084)
chain: MNTGGRLIAGSHNRNEFVLINADENARIRSVQELSGQTCQICRDEIELTVDGEPFVACNECAFPVCRPCYEYERREGNQACPQCKTRFKRLKGSPRVEGDEEEDDIDDLDNEFEYGNNGIGFDQVSEGMSISRRNSGFPQSDLDSAPPGSQIPLLTYGDEDVEISSDRHALIVPPSLGGHGNRVHPVSLSDPTVAAHPRPMVPQKDLAVYGYGSVAWKDRMEEWKRKQNEKLQVVRHEGDPDFEDGDDADFPMMDEGRQPLSRKIPIKSSKINPYRMLIVLRLVILGLFFHYRILHPVKDAYALWLISVICEIWFAVSWVLDQFPKWYPIERETYLDRLSLRYEKEGKPSGLSPVDVFVSTVDPLKEPPLITANTVLSILAVDYPVDKVACYVSDDGAAMLTFEALSETAEFARKWVPFCKKYCIEPRAPEWYFCHKMDYLKNKVHPAFVRERRAMKRDYEEFKVKINALVATAQKVPEDGWTMQDGTPWPGNSVRDHPGMIQVFLGSDGVRDVENNELPRLVYVSREKRPGFDHHKKAGAMNSLIRVSGVLSNAPYLLNVDCDHYINNSKALREAMCFMMDPQSGKKICYVQFPQRFDGIDRHDRYSNRNVVFFDINMKGLDGLQGPIYVGTGCVFRRQALYGFDAPKKKKGPRKTCNCWPKWCLLCFGSRKNRKAKTVAADKKKKNREASKQIHALENIEEGRVTKGSNVEQSTEAMQMKLEKKFGQSPVFVASARMENGGMARNASPACLLKEAIQVISCGYEDKTEWGKEIGWIYGSVTEDILTGFKMHSHGWRSVYCTPKLAAFKGSAPINLSDRLHQVLRWALGSVEIFLSRHCPIWYGYGGGLKWLERLSYINSVVYPWTSLPLIVYCSLPAICLLTGKFIVPEISNYASILFMALFSSIAITGILEMQWGKVGIDDWWRNEQFWVIGGVSAHLFALFQGLLKVLAGVDTNFTVTSKAADDGEFSDLYLFKWTSLLIPPMTLLIINVIGVIVGVSDAISNGYDSWGPLFGRLFFALWVIIHLYPFLKGLLGKQDRMPTIIVVWSILLASILTLLWVRVNPFVAKGGPILEICGLDCL
For the molecule B2, in assay [2], the binding result is given as “binds”.
